Experimental data published in patent US5747035A, “Polypeptides with increased half-life for use in treating disorders involving the LFA-1 receptor” (Genentech, Inc., priority 1995, dated 1998).

Assay: Pharmacokinetic study of anti-CD11/18 constructs in mice after single intravenous administration (serum concentration by MAC-1 capture ELISA)
Type: in vivo, male Crl:CD-1 (ICR)BR VAF/Plus mice
Procedure: Pharmacokinetic Study of Anti-CD11/18 Constructs in Mice after Intravenous Administration
The objective of this single-dose pharmacokinetic study of five humanized huH52 anti-CD18 antibody fragments (constructs) in mice was to determine if non-specific clearance of antibody fragments is affected by alterations to amino acids in the constant domain. Serum samples were collected from male CD1 mice over a 24-hour period and human anti-CD18 serum concentrations were measured by ELISA.
The anti-CD18 antibody fragments investigated were derived from E. coli-produced recombinant humanized monoclonal Fab antibody fragments as described above. The Fab fragment and the construct in which two Fab' subunits were joined together by two disulfide bonds were investigated. Lastly, three new versions of the original Fab were constructed by altering amino acids in the constant domain. See the Study Design table below for further description of the constructs.
The construct antigen-binding sites are directed against the CD18 subunit of the CD11/CD18 glycoprotein complex on the surface of leukocytes. These antibody fragments are chimpanzee and human-specific; therefore, the serum pharmacokinetic information obtained in mice provides a description of the non-specific clearance of the fragments.
Because linear pharmacokinetics were expected in this study, a single-dose level of 2 mg/kg was chosen rather than multiple-dose levels.
The pharmacokinetics of the five antibody constructs were studied in male Crl:CD-1® (ICR)BR VAF/Plus® mice (approximately 20-30 g). Five groups, each consisting of twenty mice, received an intravenous bolus dose of 2 mg/kg via the tail vein. Blood samples were collected at 5 and 30 minutes, 1, 2, 4, 8, 12, 16, 20, and 24 hours post-dose. Serum was harvested and concentrations of the antibody fragments were determined in a MAC-1 capture ELISA as follows:
96-Well microtiter plates were coated overnight with murine anti-CD18 monoclonal antibody. After overnight incubation at 4° C., plates were washed three times with ELISA wash buffer and blocked for 1 hour with ELISA diluent. ELISA wash buffer is phosphate-buffered saline (PBS)/0.05% Polysorbate™ 20. This buffer is prepared per liter as 50 mL 20×PBS/1.0% Polysorbate™ 20 (a mixture obtained by dissolving 160 g NaCl, 4.0 g KCl, 22.6 g Na2 HPO4, and 40 g KH2 PO4 in glass-distilled or deionized water, adding 10.0 mL Polysorbate™ 20 [Sigma™ P-1379 or equivalent], qs to 1000 mL, and sterile filtering using a 0.22 μm or smaller filter), and qs to 1.0 L of distilled or deionized water, stored at ambient temperature. The expiration period is 2 weeks from the date of preparation.
The ELISA diluent was PBS/0.5% BSA/0.05% Polysorbate™ 20/0.01% Thimerosal™/1 mM CaCl2 /1 mM MgCl2. This diluent was prepared per liter as 5.0 g bovine serum albumin (Armour™ N0068 or equivalent), 50 mL 20×PBS/1.0% Polysorbate™ 20/0.2% Thimerosal™ (a mixture obtained by dissolving 160 g NaCl, 4.0 g KCl, 22.6 g Na2 HPO4, and 4.0 g KH2 PO4 in glass-distilled or deionized water, and adding 10.0 mL Polysorbate™ 20 [Sigma P-1379 or equivalent] and 2.0 g Thimerosal™ [Sigma T-5125 or equivalent], qs to 1000 mL), 0.1% (v/v) 1M CaCl2 (Genentech™ A3165), 0.1% (v/v) 1M MgCl2 (Genentech™ A3167), qs to 1.0 L of distilled or deionized water, and stored at 2°-8° C., with the expiration period 1 month from the date of preparation.
After blocking, the plates were washed again three times with ELISA wash buffer. Soluble MAC1 (CD11b/CD18 as described by Berman et al., J. Cell. Biochem., 52: 183-195 [1993]) was then captured out of a concentrate of media, conditioned by CHO cells expressing the truncated CD11b/CD18 heterodimer. After a 2-hour incubation period, the plates were washed six times with ELISA wash buffer and 100 μL of the mouse serum sample being tested or the standard containing the homologous recombinant human anti-CD18 Fab were added. […]

B1: Fab v1B: Fab v1b incorporated oligos V1A and V1B; version of the original Fab constructed by altering amino acids in the constant domain (protein)
chain: ASTKGPSVFPLAPSPKNSSMISNTPALGCLVKDYFPEPVTVSWNSGALTSGVHTFPAVLQSSGLYSLSSVVTVPHQSLGTQTYICNVNHKPSNTKVDKRV
Question: Which “Half life (in words)” value (compared with the other Fab variants) does the source give for B1 here?
Answer: longer half life

Question: What about the “Serum concentration at 0.083 hours” value (mice, i.v. 2 mg/kg, 0.083 hours, one sample per mouse, 2 mg/kg) of the same molecule?
Answer: 28160 ng/mL and 33630 ng/mL

Question: And the “Serum concentration at 0.5 hours” value (mice, i.v. 2 mg/kg, 0.5 hours, one sample per mouse, 2 mg/kg)?
Answer: 10610 ng/mL and 12830 ng/mL

Question: What about the “Serum concentration at 1 hour” value (mice, i.v. 2 mg/kg, 1 hour, one sample per mouse, 2 mg/kg) of the same molecule?
Answer: 7160 ng/mL and 6890 ng/mL

Question: What about the “Serum concentration at 2 hours” value (mice, i.v. 2 mg/kg, 2 hours, one sample per mouse, 2 mg/kg) of the same molecule?
Answer: 3710 ng/mL and 4900 ng/mL

Question: What about the “Serum concentration at 4 hours” value (mice, i.v. 2 mg/kg, 4 hours, one sample per mouse, 2 mg/kg) of the same molecule?
Answer: 910 ng/mL and 670 ng/mL

Where “and” joins values, the source holds several entries; their conditions need not be identical. Identical values can stand only once.
